This assay deals with exogenous Met (human) (UniProt P08581). Description: co-IP; exogenous Met in Huh7 cells, with or without HGF (Supplementary Fig. S2f).

Sequences of proteins named here, by UniProt entry; tags and fusion partners are left off. Residues count along the entry.
UniProt P08581, residues 25-1390: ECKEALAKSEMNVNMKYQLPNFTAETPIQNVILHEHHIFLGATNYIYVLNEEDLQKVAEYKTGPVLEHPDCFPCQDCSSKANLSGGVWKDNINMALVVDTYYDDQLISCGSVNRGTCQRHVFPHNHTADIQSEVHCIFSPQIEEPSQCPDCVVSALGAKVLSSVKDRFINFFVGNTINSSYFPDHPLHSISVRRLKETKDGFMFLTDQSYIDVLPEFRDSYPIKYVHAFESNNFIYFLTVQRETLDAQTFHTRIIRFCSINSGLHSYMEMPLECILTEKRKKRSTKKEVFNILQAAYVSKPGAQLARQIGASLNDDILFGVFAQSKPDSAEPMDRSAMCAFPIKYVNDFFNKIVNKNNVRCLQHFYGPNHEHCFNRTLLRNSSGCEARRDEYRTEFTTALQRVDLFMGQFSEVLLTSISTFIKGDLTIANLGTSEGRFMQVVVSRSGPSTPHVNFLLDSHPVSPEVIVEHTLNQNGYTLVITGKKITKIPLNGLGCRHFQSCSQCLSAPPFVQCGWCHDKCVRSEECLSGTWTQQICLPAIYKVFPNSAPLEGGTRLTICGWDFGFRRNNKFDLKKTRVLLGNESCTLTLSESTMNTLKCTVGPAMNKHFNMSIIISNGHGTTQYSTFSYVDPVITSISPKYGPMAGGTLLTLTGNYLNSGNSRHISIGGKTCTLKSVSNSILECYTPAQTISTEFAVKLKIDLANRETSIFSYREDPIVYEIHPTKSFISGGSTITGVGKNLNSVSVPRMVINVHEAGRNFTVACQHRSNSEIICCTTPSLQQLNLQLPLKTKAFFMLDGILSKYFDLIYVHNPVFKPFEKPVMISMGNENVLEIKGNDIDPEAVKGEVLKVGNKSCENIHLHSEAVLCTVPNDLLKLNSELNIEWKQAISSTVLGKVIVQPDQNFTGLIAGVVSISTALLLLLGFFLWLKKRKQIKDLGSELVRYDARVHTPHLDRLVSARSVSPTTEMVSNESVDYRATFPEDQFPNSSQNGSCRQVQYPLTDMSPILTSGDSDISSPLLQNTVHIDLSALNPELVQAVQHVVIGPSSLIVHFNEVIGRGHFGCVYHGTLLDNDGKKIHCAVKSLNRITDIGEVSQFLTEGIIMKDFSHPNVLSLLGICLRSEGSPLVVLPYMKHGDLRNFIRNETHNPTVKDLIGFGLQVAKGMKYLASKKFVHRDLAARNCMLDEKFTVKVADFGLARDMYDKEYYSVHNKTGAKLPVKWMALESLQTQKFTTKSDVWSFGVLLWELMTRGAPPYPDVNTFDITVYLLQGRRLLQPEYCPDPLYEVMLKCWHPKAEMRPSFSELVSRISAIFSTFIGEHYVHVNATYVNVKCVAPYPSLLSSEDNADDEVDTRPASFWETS

For 2 molecules, binding results are on record in paper PMC8632923.

No constants are given. Whether binding was seen depends on the method and setting. Binding seen in cells or lysates may run through a third protein.

B1: Mid49 (protein, UniProt Q96C03 1-454)
chain: MAEFSQKRGKRRSDEGLGSMVDFLLANARLVLGVGGAAVLGIATLAVKRFIDRATSPRDEDDTKADSWKELSLLKATPHLQPRPPPAALSQPVLPLAPSSSAPEGPAETDPEVTPQLSSPAPLCLTLQERLLAFERDRVTIPAAQVALAKQLAGDIALELQAYFRSKFPELPFGAFVPGGPLYDGLQAGAADHVRLLVPLVLEPGLWSLVPGVDTVARDPRCWAVRRTQLEFCPRGSSPWDRFLVGGYLSSRVLLELLRKALAASVNWPAIGSLLGCLIRPSMASEELLLEVQHERLELTVAVLVAVPGVDADDRLLLAWPLEGLAGNLWLQDLYPVEAARLRALDDHDAGTRRRLLLLLCAVCRGCSALGQLGRGHLTQVVLRLGEDNVDWTEEALGERFLQALELLIGSLEQASLPCHFNPSVNLFSSLREEEIDDIGYALYSGLQEPEGLL
Consider B1, for which the binding result was “no binding”.

B2: Mff (protein, UniProt Q9GZY8 1-342)
chain: MSKGTSSDTSLGRVSRAAFPSPTAAEMAEISRIQYEMEYTEGISQRMRVPEKLKVAPPNADLEQGFQEGVPNASVIMQVPERIVVAGNNEDVSFSRPADLDLIQSTPFKPLALKTPPRVLTLSERPLDFLDLERPPTTPQNEEIRAVGRLKRERSMSENAVRQNGQLVRNDSLWHRSDSAPRNKISRFQAPISAPEYTVTPSPQQARVCPPHMLPEDGANLSSARGILSLIQSSTRRAYQQILDVLDENRRPVLRGGSAAATSNPHHDNVRYGISNIDTTIEGTSDDLTVVDAASLRRQIIKLNRRLQLLEEENKERAKREMVMYSITVAFWLLNSWLWFRR
For the molecule B2, the binding result is given as “no binding”.
